Reference: ChEMBL document CHEMBL5046242, “Investigation of Janus Kinase (JAK) Inhibitors for Lung Delivery and the Importance of Aldehyde Oxidase Metabolism” (J Med Chem, 2022)
Values after ≈ are worked out from the molar mass of the structure shown.

Key:
physchem [1] = conditions: buffer, pH 6.5
Aurora kinase B = Aurora kinase B (Homo sapiens, UniProt Q96GD4)
in vitro [2] = conditions: PAMPA, pH 7.4
physchem [3] = conditions: Lung, pH 6.5
in vitro [4] = conditions: human, cytosol
in vitro [5] = conditions: human, cytosol; remark: listed apart in the source
physchem [6] = conditions: buffer, pH 6.5; remark: listed apart in the source
[7] = target: Tyrosine-protein kinase JAK1 (Homo sapiens, UniProt P23458); format: cell-based
[8] = target: Vascular endothelial growth factor receptor 2 (Homo sapiens, UniProt P35968)
in vivo [9] = conditions: mouse, inhaled or intranasal, 1 mg/kg
in vivo [10] = conditions: mouse, inhaled or intranasal, 1 mg/kg; remark: listed apart in the source
[11] = target: Non-receptor tyrosine-protein kinase TYK2 (Homo sapiens, UniProt P29597); format: cell-based
physchem [12] = conditions: buffer, pH 7.4

Chain of Non-receptor tyrosine-protein kinase TYK2 (P29597 whole entry): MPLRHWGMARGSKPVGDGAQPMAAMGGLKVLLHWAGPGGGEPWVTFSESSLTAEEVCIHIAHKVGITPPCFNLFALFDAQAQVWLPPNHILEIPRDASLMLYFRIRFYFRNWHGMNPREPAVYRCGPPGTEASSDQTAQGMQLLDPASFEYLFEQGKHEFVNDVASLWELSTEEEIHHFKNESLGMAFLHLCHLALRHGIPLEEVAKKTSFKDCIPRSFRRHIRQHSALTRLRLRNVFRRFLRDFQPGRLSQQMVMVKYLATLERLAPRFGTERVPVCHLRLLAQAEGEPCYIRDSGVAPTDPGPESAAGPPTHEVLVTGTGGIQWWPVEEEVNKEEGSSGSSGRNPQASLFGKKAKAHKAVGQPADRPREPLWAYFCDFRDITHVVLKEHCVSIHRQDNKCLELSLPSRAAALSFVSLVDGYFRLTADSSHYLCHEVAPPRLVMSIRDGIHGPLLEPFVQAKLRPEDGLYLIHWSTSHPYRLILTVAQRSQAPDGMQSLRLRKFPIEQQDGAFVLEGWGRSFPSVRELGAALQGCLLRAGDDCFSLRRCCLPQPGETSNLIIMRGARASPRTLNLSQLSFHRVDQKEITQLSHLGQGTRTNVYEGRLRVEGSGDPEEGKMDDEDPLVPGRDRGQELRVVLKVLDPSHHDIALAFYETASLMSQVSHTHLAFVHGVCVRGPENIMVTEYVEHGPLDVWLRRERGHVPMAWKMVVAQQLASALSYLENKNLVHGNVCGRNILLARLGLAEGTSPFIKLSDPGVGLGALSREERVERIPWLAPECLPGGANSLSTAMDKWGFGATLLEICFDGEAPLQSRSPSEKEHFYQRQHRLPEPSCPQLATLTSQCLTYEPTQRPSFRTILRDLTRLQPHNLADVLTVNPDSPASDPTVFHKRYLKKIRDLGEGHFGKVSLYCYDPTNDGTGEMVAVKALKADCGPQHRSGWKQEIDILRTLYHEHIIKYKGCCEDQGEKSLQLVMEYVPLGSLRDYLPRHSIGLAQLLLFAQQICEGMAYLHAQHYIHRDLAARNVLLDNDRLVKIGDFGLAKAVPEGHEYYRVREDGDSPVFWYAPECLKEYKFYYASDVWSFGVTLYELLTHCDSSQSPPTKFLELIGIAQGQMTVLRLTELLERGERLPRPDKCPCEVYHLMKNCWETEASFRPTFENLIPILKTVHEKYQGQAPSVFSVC
Chain of Aurora kinase B (Q96GD4 whole entry): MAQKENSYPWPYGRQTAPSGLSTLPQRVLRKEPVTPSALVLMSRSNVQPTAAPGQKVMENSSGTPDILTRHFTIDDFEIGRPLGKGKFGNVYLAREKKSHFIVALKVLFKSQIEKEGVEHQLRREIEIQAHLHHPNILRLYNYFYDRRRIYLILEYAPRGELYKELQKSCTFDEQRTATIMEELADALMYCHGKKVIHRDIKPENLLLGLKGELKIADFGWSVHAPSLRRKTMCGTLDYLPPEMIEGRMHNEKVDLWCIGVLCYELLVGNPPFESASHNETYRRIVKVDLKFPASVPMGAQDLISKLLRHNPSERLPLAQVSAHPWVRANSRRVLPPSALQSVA
Chain of Tyrosine-protein kinase JAK1 (P23458 whole entry): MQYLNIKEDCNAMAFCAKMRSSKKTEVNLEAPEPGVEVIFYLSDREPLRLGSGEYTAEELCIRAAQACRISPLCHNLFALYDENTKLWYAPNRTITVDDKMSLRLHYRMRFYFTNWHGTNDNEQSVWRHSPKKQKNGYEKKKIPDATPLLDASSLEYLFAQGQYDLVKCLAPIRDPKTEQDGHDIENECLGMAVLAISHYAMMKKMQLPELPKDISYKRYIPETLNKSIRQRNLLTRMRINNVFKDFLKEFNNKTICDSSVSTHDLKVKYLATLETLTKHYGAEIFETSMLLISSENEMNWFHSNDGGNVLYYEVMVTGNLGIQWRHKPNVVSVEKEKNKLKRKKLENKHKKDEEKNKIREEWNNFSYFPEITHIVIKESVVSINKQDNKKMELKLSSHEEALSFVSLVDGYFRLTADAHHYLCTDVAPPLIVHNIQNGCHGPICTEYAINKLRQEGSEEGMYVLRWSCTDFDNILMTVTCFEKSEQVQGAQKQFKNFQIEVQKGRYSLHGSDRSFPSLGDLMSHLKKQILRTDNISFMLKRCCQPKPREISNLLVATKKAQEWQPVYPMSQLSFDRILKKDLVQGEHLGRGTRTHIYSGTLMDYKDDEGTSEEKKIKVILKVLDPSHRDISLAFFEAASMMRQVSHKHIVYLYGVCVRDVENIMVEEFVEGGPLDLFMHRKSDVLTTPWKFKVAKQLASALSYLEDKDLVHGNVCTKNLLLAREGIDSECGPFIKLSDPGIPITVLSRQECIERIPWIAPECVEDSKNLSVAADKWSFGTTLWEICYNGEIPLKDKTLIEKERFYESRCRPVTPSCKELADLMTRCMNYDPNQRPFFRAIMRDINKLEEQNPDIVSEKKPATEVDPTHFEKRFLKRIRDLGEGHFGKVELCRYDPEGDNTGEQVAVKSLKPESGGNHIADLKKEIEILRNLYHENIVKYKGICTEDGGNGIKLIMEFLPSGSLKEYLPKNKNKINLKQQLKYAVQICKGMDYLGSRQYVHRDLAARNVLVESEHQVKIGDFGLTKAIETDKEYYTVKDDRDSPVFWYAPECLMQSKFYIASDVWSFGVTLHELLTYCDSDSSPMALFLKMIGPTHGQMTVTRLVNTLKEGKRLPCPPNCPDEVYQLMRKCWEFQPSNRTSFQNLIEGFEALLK
Chain of Vascular endothelial growth factor receptor 2 (P35968 whole entry): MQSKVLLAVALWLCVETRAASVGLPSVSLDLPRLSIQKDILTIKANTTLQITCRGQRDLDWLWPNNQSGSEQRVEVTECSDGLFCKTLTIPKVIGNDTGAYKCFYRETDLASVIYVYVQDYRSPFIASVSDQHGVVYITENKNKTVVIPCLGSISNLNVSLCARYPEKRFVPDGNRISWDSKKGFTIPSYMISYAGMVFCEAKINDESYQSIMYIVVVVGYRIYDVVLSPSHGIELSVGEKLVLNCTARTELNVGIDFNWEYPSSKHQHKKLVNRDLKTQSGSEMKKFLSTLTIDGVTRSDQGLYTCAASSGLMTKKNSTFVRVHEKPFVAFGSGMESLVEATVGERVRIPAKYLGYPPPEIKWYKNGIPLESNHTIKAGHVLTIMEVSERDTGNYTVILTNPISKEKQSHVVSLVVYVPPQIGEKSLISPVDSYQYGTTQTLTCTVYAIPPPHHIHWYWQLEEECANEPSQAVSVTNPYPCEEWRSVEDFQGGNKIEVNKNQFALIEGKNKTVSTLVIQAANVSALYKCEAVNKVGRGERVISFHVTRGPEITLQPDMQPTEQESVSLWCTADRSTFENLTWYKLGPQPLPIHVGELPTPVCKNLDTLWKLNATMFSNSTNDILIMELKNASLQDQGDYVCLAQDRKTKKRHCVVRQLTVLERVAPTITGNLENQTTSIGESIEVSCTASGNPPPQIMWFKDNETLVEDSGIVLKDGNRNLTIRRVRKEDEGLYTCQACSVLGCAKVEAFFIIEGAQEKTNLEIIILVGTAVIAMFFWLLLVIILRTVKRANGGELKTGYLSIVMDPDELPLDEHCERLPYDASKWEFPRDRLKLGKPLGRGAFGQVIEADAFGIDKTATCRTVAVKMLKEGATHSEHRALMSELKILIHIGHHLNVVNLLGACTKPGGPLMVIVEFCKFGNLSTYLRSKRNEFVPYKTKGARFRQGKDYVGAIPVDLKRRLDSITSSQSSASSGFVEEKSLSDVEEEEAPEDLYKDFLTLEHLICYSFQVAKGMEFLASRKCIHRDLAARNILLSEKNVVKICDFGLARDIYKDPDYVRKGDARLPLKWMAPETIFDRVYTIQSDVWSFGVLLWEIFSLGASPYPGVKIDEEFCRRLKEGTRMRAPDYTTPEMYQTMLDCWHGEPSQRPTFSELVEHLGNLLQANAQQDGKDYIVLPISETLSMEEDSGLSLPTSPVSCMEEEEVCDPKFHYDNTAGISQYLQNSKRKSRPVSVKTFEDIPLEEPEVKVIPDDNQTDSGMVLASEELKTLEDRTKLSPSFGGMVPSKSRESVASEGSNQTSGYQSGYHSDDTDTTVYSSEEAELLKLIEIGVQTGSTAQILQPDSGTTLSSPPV

Row | SMILES | solubility at 4 h (physchem [1]) | IC50 (Aurora kinase B) | Papp at 3 h (in vitro [2]) | other results
1 | CCc1cc(O)c(F)cc1-c1cc(NC[C@@H](C)O)c2nc(N)ncc2c1 | 57 µg/mL (≈ 160 µM) | – | – | –
2 | CCc1cc(O)c(F)cc1-c1cc(N[C@@H]2CCCN(C)C2)c2nc(N)ncc2c1 | – | 25100 nM | 25 ×10⁻⁶ cm/s | –
3 | CCc1cc(O)c(F)cc1-c1cc(N[C@@H](C)CO)c2nc(N)ncc2c1 | – | – | 17.6 ×10⁻⁶ cm/s | solubility thermodynamic at 4 h (physchem [3]): 7 µg/mL (≈ 19.6 µM); half-life at 1 h, 10000 µM (in vitro [4]): 0.0167 h; half-life at 1 h, 10000 µM (in vitro [5]): > 4.28 h; solubility at 4 h (physchem [6]): 92 µg/mL (≈ 258 µM)
4 | CCc1cc(O)c(F)cc1-c1cc(N[C@@H]2C[C@H]3CC[C@@H](C2)N3)c2nc(N)ncc2c1 | 21 µg/mL (≈ 51.5 µM) | 2510 nM | < 1 ×10⁻⁶ cm/s | –
5 | CCc1cc(O)c(F)cc1-c1cc(N[C@H](C)CO)c2nc(N)ncc2c1 | 126 µg/mL (≈ 354 µM) | – | 17 ×10⁻⁶ cm/s | –
6 | CCc1cc(O)c(F)cc1-c1cc(NCC2CCN(C)CC2)c2nc(N)ncc2c1 | 108 µg/mL (≈ 264 µM) | 10000 nM | 10 ×10⁻⁶ cm/s | –
7 | CCc1cc(O)c(F)cc1-c1cc(N[C@H]2C[C@H]3CC[C@@H](C2)N3)c2nc(N)ncc2c1 | – | 6310 nM | – | half-life at 1 h, 10000 µM (in vitro [4]): 0.0683 h; half-life at 1 h, 10000 µM (in vitro [5]): 1.9 h
8 | COc1cc(-c2ccc(O)cc2)cc2cnc(N)nc12 | – | 2510 nM | – | IC50 [7]: 31.6 nM
9 | CCc1cc(O)c(F)cc1-c1cc(NC2CCN(C(C)=O)CC2)c2nc(N)ncc2c1 | 1 µg/mL (≈ 2.36 µM) | 20000 nM | 6.9 ×10⁻⁶ cm/s | IC50 [8]: 631 nM
10 | CCc1cc(O)c(F)cc1-c1cc(N[C@@H](C)CO)c2nc(NCCOCCN(C)C)ncc2c1 | – | 20000 nM | – | half-life at 1 h, 10000 µM (in vitro [4]): > 4.28 h; half-life at 1 h, 10000 µM (in vitro [5]): > 4.28 h
11 | CCc1c(-c2cc(OC)c3nc(N)ncc3c2)ccc(O)c1F | 64 µg/mL (≈ 204 µM) | 3980 nM | – | IC50 [7]: 7.94 nM
12 | CCc1cc(O)c(F)cc1-c1cc(NCCCO)c2nc(N)ncc2c1 | 49 µg/mL (≈ 137 µM) | 7940 nM | 12 ×10⁻⁶ cm/s | –
13 | CCc1cc(O)c(F)cc1-c1cc(N[C@@H](C)CO)c2nc(NCCCCCN(C)C)ncc2c1 | 275 µg/mL (≈ 586 µM) | 1580 nM | 13.3 ×10⁻⁶ cm/s | CL/F at 12 h (in vivo [9]): 106 mL/min/kg; half-life at 1 h, 10000 µM (in vitro [4]): > 4.28 h; half-life at 12 h (in vivo [10]): 1.9 h; half-life at 1 h, 10000 µM (in vitro [5]): > 4.28 h
14 | CCc1cc(O)c(F)cc1-c1cc(N[C@H]2CCCN(C)C2)c2nc(N)ncc2c1 | 168 µg/mL (≈ 425 µM) | 15800 nM | 26 ×10⁻⁶ cm/s | half-life at 1 h, 10000 µM (in vitro [4]): 0.0283 h; half-life at 1 h, 10000 µM (in vitro [5]): > 4.28 h
15 | CCc1cc(O)c(F)cc1-c1cc(N[C@@H](C)CO)c2[nH]c(N)nc(=O)c2c1 | – | – | – | IC50 [7]: 1580 nM; IC50 [11]: 12600 nM
16 | CCc1cc(O)c(F)cc1-c1cc(NC(CO)CO)c2nc(N)ncc2c1 | 65 µg/mL (≈ 175 µM) | – | < 0.3 ×10⁻⁶ cm/s | –
17 | CCc1cc(O)c(F)cc1-c1cc(NC2CCN(C)CC2)c2nc(N)ncc2c1 | – | – | 14 ×10⁻⁶ cm/s | half-life at 1 h, 10000 µM (in vitro [5]): 1.6 h
18 | Cn1cc(Nc2ncc3cccc(CC4CCNCC4)c3n2)cn1 | – | – | – | IC50 [7]: 12.6 nM; IC50 [11]: 100 nM; solubility kinetic at 1 h (physchem [12]): 292 µM (≈ 94.1 µg/mL)
19 | CC(=O)N1CCC(Cc2cccc3cnc(Nc4cnn(C)c4)nc23)CC1 | – | – | – | IC50 [7]: 63.1 nM; IC50 [11]: 79.4 nM; solubility kinetic at 1 h (physchem [12]): 224 µM (≈ 81.6 µg/mL)
20 | CCc1cc(O)c(F)cc1-c1cc(N[C@@H](C)CO)c2nc(NCCCN(C)C)ncc2c1 | 983 µg/mL (≈ 2230 µM) | 10000 nM | 4.9 ×10⁻⁶ cm/s | half-life at 1 h, 10000 µM (in vitro [4]): > 4.28 h; half-life at 1 h, 10000 µM (in vitro [5]): 3.77 h
21 | CCc1cc(O)c(F)cc1-c1cc(OC)c2nc(N)ncc2c1 | 14 µg/mL (≈ 44.7 µM) | 3160 nM | 14.5 ×10⁻⁶ cm/s | solubility kinetic at 1 h (physchem [12]): 103 µM (≈ 32.3 µg/mL)
22 | CCc1cc(O)c(F)cc1-c1cc(NC[C@H](C)O)c2nc(N)ncc2c1 | 28 µg/mL (≈ 78.6 µM) | – | – | –
23 | CCc1cc(O)c(F)cc1-c1cc(N(C)CCO)c2nc(N)ncc2c1 | – | 7940 nM | 17 ×10⁻⁶ cm/s | –
24 | Cn1cc(Nc2ncc3cccc(NC4CCNCC4)c3n2)cn1 | – | – | – | IC50 [7]: 7.94 nM; IC50 [11]: 63.1 nM
